# Values joined by “and” are separate entries in the source; they are usually repeats but may differ in a detail not shown here. Equal entries are not always repeated. This list was built around the results that the source calls inconclusive (neither active nor inactive); the mix of calls is not that of the screen. Where the call is inconclusive, the potency comes from a doubtful curve fit. Some structures have more than one record in an assay (separate samples or runs), and their calls can disagree. Active and inactive are the calls of the source. Unless noted, calls follow the shape of the dose curve; as a rule, active = well fitted curve in the direction sought with a large enough effect in the repeat runs; inconclusive = weak or mixed curves; inactive = no such curve, though single readings can be large; an effect the other way counts as inactive or inconclusive.
# Experiments:
# [1] = qHTS assay to identify small molecule agonists of the retinoic acid receptor (RAR) signaling pathway (AID 1159553); details: C3RL4 RARE luciferase reporter, agonist, 6 h; activation: at 73.3 µM (top of the series) unless noted; as to activation: % is scaled to controls: 0 for no effect and ±100 for the full control effect
# Summary of the method: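 Cell line C3RL4, RARE luciferase reporter. Treatment: compounds in DMSO, 6 hr, 37 C, 5% CO2, after overnight plating. Detection: luminescence, 30 min RT after reagent.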
# [2] = target: Luciferin 4-monooxygenase (Photinus pyralis) (UniProt P08659); experiment: qHTS assay to identify small molecule inhibitors of firefly luciferase (AID 1224835); also: nearly all actives have a fitted effect of over 25% in size
# Summary of the method: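 Inhibition of purified Photinus luciferase is measured by luminescence. Substrate levels (D-luciferin, ATP) sit at their KM values. Each compound is tested in a concentration series.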
# [3] = qHTS assay to identify small molecule antagonists of the constitutive androstane receptor (CAR) signaling pathway - cell viability counter screen (AID 1224837); also: nearly all actives have a fitted effect of over 45% in size
# Summary of the method: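 Fluorescence from CellTiter-Fluor served as the viability signal. Human hepatoma HepG2 cells stably bearing hCAR and CYP2B6-2.2kb received compound plus CITCO (50 nM final) for 23 hr.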
# [4] = qHTS assay to identify small molecule antagonists of the estrogen related receptor signaling pathway with the pleiotropic PPARgamma coactivator (PGC) from Tox21 10K library - cell viability counter screen (AID 1224840; active = well fitted cell-killing curve with a large enough effect in the repeat runs, not every such curve was filed as active; inconclusive = weak or mixed curves, or effect the other way; inactive = no such curve, though single readings can be large or run the other way; also: nearly all actives have a fitted effect of over 40% in size)
# Summary of the method: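 Compounds in DMSO, alongside positive and negative controls, were pinned onto PGC/ERR cells (2,000 per well). Exposure lasted 17.5 hours at 37 C, followed by a 30-minute CellTiter-Fluor incubation and fluorescence reading.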
# [5] = target: Thyrotropin receptor (Homo sapiens) (UniProt P16473); experiment: qHTS assay to identify small molecule agonists of the thyroid stimulating hormone receptor (TSHR) signaling pathway (AID 1224843; calls by dose curve; also: nearly all actives have a fitted effect of over 45% in size; as to activation: % is scaled to controls: 0 for no effect and ±100 for the full control effect); details: TSHR-HEK293 cells, cAMP HTRF, agonist mode, 30 min
# Summary of the method: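 HEK293 cells stably bearing the thyrotropin receptor were plated at 800 cells/well and challenged with compound (30 min, RT). Accumulated cAMP was quantified via cAMP-d2 competing for cryptate-tagged antibody.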
# [6] = qHTS assay to identify small molecule agonists of the hypoxia (HIF-1) signaling pathway - cell viability counter screen (AID 1224844; calls by dose curve; also: nearly all actives have a fitted effect of over 50% in size)
# Summary of the method: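 Luminescent ATP content (CellTiter-Glo, 30 min, room temperature) served as the viability measure in HRE-bla ME-180 cells exposed to compounds for 17 hrs in low-serum medium (0.5% dialyzed FBS).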
# [7] = qHTS assay to identify small molecule antagonists of the estrogen related receptor (ERR) signaling pathway - cell viability counter screen (AID 1224818);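 also: viability measured after 17.5 h of compound exposure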
# Summary of the method: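 Here, ERR cells are plated at 2,000 cells per well, allowed 6 h to attach, and treated with compounds in DMSO for 17.5 h at 37 C. CellTiter-Fluor is then added and fluorescence read after 30 min.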
# [8] = qHTS assay to identify small molecule agonists of the estrogen related receptor (ERR) signaling pathway (AID 1224820); details: ERR reporter cell line, luciferase agonist mode
# Summary of the method: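 Quantitative HTS of the LOPAC library used NTP ERR reporter cells treated 18 h at 37 C. Signal is luminescence after One-Glo addition and a 30 min room-temperature incubation.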
# [9] = qHTS assay to identify small molecule agonists of the estrogen related receptor signaling pathway with the pleiotropic PPARgamma coactivator (PGC) (AID 1224823)
# Summary of the method: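 Cell-based luciferase assay in the NTP-supplied PGC/ERR line, 2,000 cells/well; 18 h compound exposure at 37 C, luminescence after One-Glo.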
# [10] = target: Nuclear receptor subfamily 1 group I member 3 (Homo sapiens) (UniProt Q14994); experiment: qHTS assay to identify small molecule agonists of the constitutive androstane receptor (CAR) signaling pathway (AID 1224839); also: nearly all actives have a fitted effect of over 15% in size
# Summary of the method: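 HepG2 cells stably co-transfected with hCAR and a CYP2B6-2.2kb luciferase reporter; compounds at 15 concentrations with 0.75 uM PK11195 present. After 24 hr at 37 C, luciferase read by ONE-Glo luminescence.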
# [11] = qHTS assay to identify small molecule agonists of the estrogen related receptor signaling pathway with the pleiotropic PPARgamma coactivator (PGC) from Tox21 10K library (AID 1224842); also: nearly all actives have a fitted effect of over 15% in size; as to activation: % is scaled to controls: 0 for no effect and ±100 for the full control effect
# Summary of the method: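 Luminescence from One-Glo (30 min, room temperature) measured after PGC/ERR cells had 18 h at 37 C with pinned compound (23 nL in DMSO). Cells had been seeded at 2,000 per well and pre-incubated 6 h.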
# [12] = qHTS assay to identify small molecule antagonists of the estrogen related receptor (ERR) signaling pathway (AID 1224819; also: nearly all actives have a fitted effect of over 50% in size)
# Summary of the method: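 LOPAC library screened for antagonism as reduced One-Glo luminescence in ERR reporter cells (2,000/well). Compounds were added after 6 h pre-incubation and left 18 h at 37C; reading followed a 30 min room-temperature reagent step.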
# [13] = qHTS assay to identify small molecule antagonists of the estrogen related receptor (ERR) signaling pathway from Tox21 library - cell viability counter screen (AID 1224834); also: nearly all actives have a fitted effect of over 30% in size
# Summary of the method: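 Viability readout (CellTiter-Fluor fluorescence, 30 min at 37 C) multiplexed with the ERR assay; cells treated 17.5 h at 37 C with compounds delivered in DMSO.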
# [14] = qHTS assay to identify small molecule antagonists of the estrogen related receptor signaling pathway with the pleiotropic PPARgamma coactivator (PGC) from Tox21 10K library (AID 1224841; call rule not given here; also: actives are mostly falling curves and most rising ones were filed inactive; nearly all actives have a fitted effect of over 50% in size)
# Summary of the method: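 Compound exposure ran 18 hours at 37 C in PGC/ERR cells (2,000/well) that had first rested 6 hours in a 37 C/5% CO2 incubator. Luciferase activity was then detected with One-Glo after a 30-minute room-temperature step.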
# [15] = system: estrogen-related receptor alpha (ERRalpha) with PGC-1alpha coactivator, human; experiment: qHTS assay to identify small molecule antagonists of the estrogen related receptor signaling pathway with the pleiotropic PPARgamma coactivator (PGC) (AID 1224821; calls by dose curve; also: nearly all actives have a fitted effect of over 50% in size)
# Summary of the method: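 Quantitative HTS for antagonism: PGC/ERR cells received compounds after 6 h attachment and were incubated 18 h at 37 C, with luminescence (One-Glo) as the endpoint.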
# [16] = qHTS assay to identify small molecule antagonists of the estrogen related receptor signaling pathway with the pleiotropic PPARgamma coactivator (PGC) cell viability counter screen (AID 1224822;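 also: viability read after 17.5 h compound exposure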)
# Summary of the method: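 qHTS format, DMSO compound stocks pin-transferred onto PGC/ERR cells 6 h after plating; 17.5 h exposure at 37 C, then CellTiter-Fluor fluorescence.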
# [17] = qHTS assay to identify small molecule agonists of the constitutive androstane receptor (CAR) signaling pathway - cell viability counter screen (AID 1224836); also: nearly all actives have a fitted effect of over 45% in size
# Summary of the method: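 HepG2 cells stably carrying hCAR and a CYP2B6-2.2kb reporter; 15-concentration compounds plus PK11195 (final 0.75 uM), 23 hr at 37 C/5% CO2. Viability read by CellTiter-Fluor fluorescence.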
# [18] = activation: at 92.4 µM (top of the series) unless noted
# Potency is read from the fitted curve at half-maximal effect; tags tell the direction and shape of the fitted curve or compound fluorescence and quenching.
# Sequence of UniProt P16473 (P16473 whole entry, looked up): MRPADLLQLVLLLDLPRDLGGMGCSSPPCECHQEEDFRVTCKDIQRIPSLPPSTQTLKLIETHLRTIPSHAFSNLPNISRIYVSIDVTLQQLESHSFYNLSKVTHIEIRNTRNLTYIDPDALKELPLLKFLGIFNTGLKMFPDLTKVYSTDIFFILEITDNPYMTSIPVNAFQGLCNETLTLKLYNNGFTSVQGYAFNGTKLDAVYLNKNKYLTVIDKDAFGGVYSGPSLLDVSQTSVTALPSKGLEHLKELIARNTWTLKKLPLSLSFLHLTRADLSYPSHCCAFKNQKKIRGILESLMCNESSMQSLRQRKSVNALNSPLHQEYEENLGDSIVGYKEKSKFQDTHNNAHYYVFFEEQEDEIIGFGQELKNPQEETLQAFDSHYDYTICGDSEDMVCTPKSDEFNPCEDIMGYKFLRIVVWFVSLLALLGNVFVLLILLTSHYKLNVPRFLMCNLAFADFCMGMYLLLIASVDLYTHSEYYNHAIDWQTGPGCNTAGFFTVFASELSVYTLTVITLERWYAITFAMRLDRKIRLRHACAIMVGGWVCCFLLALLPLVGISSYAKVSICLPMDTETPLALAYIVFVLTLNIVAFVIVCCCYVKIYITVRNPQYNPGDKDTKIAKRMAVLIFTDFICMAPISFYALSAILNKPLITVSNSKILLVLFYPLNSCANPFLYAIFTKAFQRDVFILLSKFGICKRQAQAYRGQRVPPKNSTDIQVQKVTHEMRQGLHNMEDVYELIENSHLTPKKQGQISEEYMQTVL
# Sequence of UniProt Q14994 (Q14994 whole entry, looked up): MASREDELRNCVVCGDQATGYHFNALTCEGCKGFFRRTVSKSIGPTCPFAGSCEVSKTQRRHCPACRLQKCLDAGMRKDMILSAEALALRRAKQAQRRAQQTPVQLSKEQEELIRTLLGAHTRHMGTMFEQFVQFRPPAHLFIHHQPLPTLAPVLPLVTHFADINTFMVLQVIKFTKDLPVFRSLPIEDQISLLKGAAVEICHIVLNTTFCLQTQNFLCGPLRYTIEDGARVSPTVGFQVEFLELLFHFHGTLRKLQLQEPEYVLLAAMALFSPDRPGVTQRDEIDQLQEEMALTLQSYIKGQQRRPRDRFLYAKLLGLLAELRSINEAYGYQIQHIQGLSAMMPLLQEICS
# Sequence of UniProt P08659 (P08659 whole entry, looked up): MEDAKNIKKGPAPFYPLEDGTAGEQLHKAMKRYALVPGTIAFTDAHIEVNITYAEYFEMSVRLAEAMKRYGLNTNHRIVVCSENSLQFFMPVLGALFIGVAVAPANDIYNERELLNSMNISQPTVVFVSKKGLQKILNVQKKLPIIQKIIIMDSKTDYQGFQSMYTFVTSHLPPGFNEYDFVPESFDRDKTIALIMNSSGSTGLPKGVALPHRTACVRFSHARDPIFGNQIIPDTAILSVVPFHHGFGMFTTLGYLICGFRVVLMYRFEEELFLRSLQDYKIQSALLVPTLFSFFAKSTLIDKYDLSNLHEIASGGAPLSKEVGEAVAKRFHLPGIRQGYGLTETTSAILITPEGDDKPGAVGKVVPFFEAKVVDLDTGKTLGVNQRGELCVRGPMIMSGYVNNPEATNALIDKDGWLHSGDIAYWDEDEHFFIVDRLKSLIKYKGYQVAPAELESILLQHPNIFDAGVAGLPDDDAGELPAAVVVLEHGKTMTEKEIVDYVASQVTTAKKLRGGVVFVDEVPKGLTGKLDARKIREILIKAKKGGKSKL
smiles,measurement,setting,value
C=C1CC[C@H](O)C/C1=C\C=C1/CCC[C@]2(C)[C@@H]([C@H](C)CCCC(C)C)CC[C@@H]12,activation,[1],inconclusive: 7.74% [phenotype inactive]
same,Potency,[2],"inconclusive: 99.4 µM [inhibitor, single point]"
same,Potency,[3],"inconclusive: 76.3 µM [cytotoxic, partial curve, poor fit]"
same,Potency,[4],"inconclusive: 54 µM [cytotoxic, partial curve]"
same,Potency,[5]; [18],active: 19.2 µM
same,Potency,[6],active: 38.5 µM
NC1[C@H]2CN(c3nc4c(cc3F)c(=O)c(C(=O)O)cn4-c3ccc(F)cc3F)C[C@@H]12 (stereo not given in full),Potency,[7],inactive
same,Potency,[8],inconclusive: 32.2 µM [activator]
same,Potency,[9],inconclusive: 32.2 µM [activator]
same,Potency,[3],"inconclusive: 10.6 µM [cytotoxic, full curve]"
same,Potency,[10],"inconclusive: 23.7 µM [activator, partial curve]"
same,Potency,[11],"inconclusive: 18.8 µM [activator, partial curve]"
O=C(OCc1ccccc1)c1ccc(O)cc1,Potency,[1],active: 6.86 µM and active: 11.9 µM
same,Potency,[10],"inconclusive: 29.8 µM [activator, single point]"
same,activation,[5]; [18],inconclusive: 0.236%
same,activation,[5]; at 42.5 µM (top of the series),inactive: -1.04%
[Cl][In]([Cl])[Cl],Potency,[12],inactive
same,Potency,[13],"inconclusive: 34.4 µM [cytotoxic, partial curve, poor fit]"
Cn1cnc2ncnc(N)c21,Potency,[1],inactive
same,Potency,[5]; [18],inactive
Oc1c(I)cc(Cl)c2cccnc12,Potency,[1],active: 76.8 µM
same,Potency,[4],"active: 27.3 µM and inconclusive: 26.6 µM [cytotoxic, partial curve]"
same,Potency,[11],"inconclusive: 33.5 µM [activator, single point]"
same,Potency,[6],inactive
CN(CCOc1ccc(NS(C)(=O)=O)cc1)CCc1ccc(NS(C)(=O)=O)cc1,Potency,[7],inactive
CC(C)C[C@H](NC(=O)[C@H](CCc1ccccc1)NC(=O)CN1CCOCC1)C(=O)N[C@@H](Cc1ccccc1)C(=O)N[C@@H](CC(C)C)C(=O)[C@@]1(C)CO1,Potency,[1],active: 0.0473 µM
same,Potency,[6],active: 0.213 µM
c1ccc2cc3c(ccc4ccccc43)cc2c1,Potency,[1],active: 2.74 µM and active: 3.86 µM
same,activation,[5]; [18],inconclusive: -24%
O=C(O)CCCCCCCCCCCBr,Potency,[1],"inconclusive: 27.4 µM [activator, partial curve, poor fit]"
same,Potency,[6],"inconclusive: 19.5 µM [cytotoxic, full curve, poor fit]"
CCN(CCN)c1cccc(C)c1,Potency,[1],"inconclusive: 77.7 µM [activator, partial curve, poor fit]"
same,Potency,[14],"inconclusive: 69.2 µM [falling, single point]"
O=C(O)Cc1ccc(OCCNC[C@H](O)c2ccccc2)cc1,Potency,[1],"inconclusive: 33.5 µM [inhibitor, single point]"
same,Potency,[5]; [18],inactive
NNCCc1ccccc1,Potency,[1],active: 1.37 µM and active: 9.44 µM
same,Potency,[6],"inconclusive: 0.98 µM [cytotoxic, full curve]"
O=C(O)Cc1ccccc1Nc1c(Cl)cccc1Cl,Potency,[7],inactive
Cc1cccc(Br)c1,activation,[1],inconclusive: 3.7% [phenotype inactive] [at 94.8 µM]
same,Potency,[10],"inconclusive: 68.9 µM [activator, single point]"
same,Potency,[6],"inconclusive: 55.3 µM [cytotoxic, single point]"
CN1C[C@H](C(=O)N[C@]2(C)O[C@@]3(O)[C@@H]4CCCN4C(=O)[C@H](Cc4ccccc4)N3C2=O)C[C@@H]2c3cccc4[nH]cc(c34)C[C@H]21,Potency,[7],inconclusive: 31.6 µM [cytotoxic]
same,Potency,[12],inconclusive: 19.6 µM [inhibitor]
same,Potency,[15],inconclusive: 28.2 µM [inhibitor]
same,Potency,[16],inconclusive: 29.8 µM [cytotoxic]
same,Potency,[17],"inconclusive: 29.8 µM [cytotoxic, partial curve]"
same,Potency,[3],"inconclusive: 29.8 µM [cytotoxic, partial curve]"
same,Potency,[4],"inconclusive: 23.7 µM [cytotoxic, partial curve]"
same,Potency,[5]; [18],inactive
same,Potency,[6],active: 12 µM
COC(=O)CC(C)CCC=C(C)C (stereo not given),Potency,[1],"inconclusive: 77 µM [inhibitor, single point]"
same,Potency,[14],"inconclusive: 61.1 µM [falling, single point]"
same,Potency,[11],inactive
OC1CCCC1,activation,[1],inconclusive: 0.689% [phenotype inactive]
same,Potency,[5]; [18],inactive
O=C(NOCC1CC1)c1ccc(F)c(F)c1Nc1ccc(I)cc1Cl,Potency,[1],inconclusive: 33.5 µM [inhibitor]
same,Potency,[4],"inconclusive: 33.5 µM [cytotoxic, partial curve, poor fit]"
same,Potency,[6],"inconclusive: 23.9 µM [cytotoxic, single point]"
CCOC(=O)c1ccc(I)cc1,Potency,[1],inactive
same,Potency,[5]; [18],"inconclusive: 7.77 µM [activator, partial curve]"
same,Potency,[6],"inconclusive: 17.5 µM [cytotoxic, partial curve, poor fit]"
CC(C)C(=O)OCCOc1ccccc1,Potency,[1],inactive
same,activation,[5]; [18],inconclusive: -20.2%
O=C(NS(=O)(=O)/C=C/c1ccccc1)c1ccc(F)cc1Cl,activation,[1],inconclusive: 18.3% [phenotype inactive]
same,Potency,[11],active: 13.7 µM
